Measured values from patent US4683221A, “Lymphocyte-activating polypeptides” (Scripps Clinic and Research Foundation, priority 1986, dated 1987).
At least one peptide structure holds a part that was inferred or is arguable (an end, a ring closure or a residue). Ends that are not written are not given here.

What follows are sequences tested on mouse spleen cells (assay: Polyclonal antibody response assay (Ig secretion measured by ELISA)). Details: C57BL/6 spleen cells, 5 days; equimolar amounts of polypeptide, 1.5 mg/ml of p23 as standard.
Assay type: cell-based

| Sequence | Ig Found (amount of polyclonal Ig molecules found in the assay) [µg/mL] |
| --- | --- |
| AKGQPREPQVYTLPPSREE [I-51(g)] | 1.5 |
| EPQVYTLPPSREE [I-51(d)] | 1.9 |
| GQPREPQVYTLPPSREE [I-51(f)] | 1.7 |
| PREPQVYTLPPSREE [I-51(e)] | 1.3 |
| TISKAKGQP [I-52(a)] | 1.5 |
| TISKAKGQPRE [I-52(b)] | 2.2 |
| TISKAKGQPREPQ [I-52(c)] | 1.9 |
| TISKAKGQPREPQVY [I-52(d)] | 1.8 |
| TISKAKGQPREPQVYTL [I-52(e)] | 1.9 |
| TISKAKGQPREPQVYTLPP [I-52(f)] | 1.5 |
